Reference: the supplement of paper PMC4604168 (melanoma cell lines)
The other results are listed elsewhere or left out. Single values are uncertain, as repeats are few or missing.

The compounds below were run on A101D (assay: cell count relative to DMSO control; melanoma cells; higher = more viable cells). Settings: library dose: standard library concentration; 72 h.
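Also: cells treated in 1,536-well plates, then fixed and DAPI-stained, with nuclei counted from automated high-throughput microscope images.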

| Compound | cell count [%] |
| --- | --- |
| C/C(O)=C(\C#N)C(=O)Nc1cc(Br)ccc1Br + CC(C)CCN1c2nc(Nc3cc(F)c(O)c(F)c3)ncc2N(C)C(=O)C1C [BID1870] (first compound 10 µM, partner dose 1 µM) | 68.6 |
| O=c1[nH]nc(Sc2ncc([N+](=O)[O-])s2)n1-c1ccc2c(c1)OCCO2 + Cn1cc(C2=C(c3cn(C4CCN(Cc5ccccn5)CC4)c4ccccc34)C(=O)NC2=O)c2ccccc21 [Enzastaurin] (first compound 1 µM, partner dose 4 µM) | 111 |
| COc1ccc(C2=N[C@@H](c3ccc(Cl)cc3)[C@@H](c3ccc(Cl)cc3)N2C(=O)N2CCNC(=O)C2)c(OC(C)C)c1 [Nutlin-3] + Cc1cc(SCc2sc(-c3ccc(C(F)(F)F)c(F)c3)nc2C)ccc1OCC(=O)O [GW0742] (first compound 0.5 µM, partner dose 10 µM) | 57.7 |
| CNC(=O)c1cc(Oc2ccc(NC(=O)Nc3ccc(Cl)c(C(F)(F)F)c3)cc2)ccn1 [sorafenib] + O=C(Oc1ccc([N+](=O)[O-])cc1)N1CCC(C(O)(c2ccc3c(c2)OCO3)c2ccc3c(c2)OCO3)CC1 [JZL184] (first compound 2 µM, partner dose 5 µM) | 103 |
| O=C(/C=C/c1cccnc1)NCCCCC1CCN(C(=O)c2ccccc2)CC1 + C[As](C)SC[C@H](NC(=O)CC[C@H](N)C(=O)O)C(=O)NCC(=O)O [Darinaparsin] (first compound 0.05 µM, partner dose 2 µM) | 75.6 |
| Cn1sc(=O)n(Cc2ccccc2)c1=O + C[As](C)SC[C@H](NC(=O)CC[C@H](N)C(=O)O)C(=O)NCC(=O)O [Darinaparsin] (first compound 2 µM, partner dose 2 µM) | 92.9 |
| N#Cc1c(O)c2c(-c3ccc(-c4ccccc4O)cc3)csc2[nH]c1=O + O=C(Oc1ccc([N+](=O)[O-])cc1)N1CCC(C(O)(c2ccc3c(c2)OCO3)c2ccc3c(c2)OCO3)CC1 [JZL184] (first compound 10 µM, partner dose 5 µM) | 104 |
| O=C(Oc1ccc([N+](=O)[O-])cc1)N1CCC(C(O)(c2ccc3c(c2)OCO3)c2ccc3c(c2)OCO3)CC1 + CCCCCCCCCCCC1=C(O)C(=O)C=C(O)C1=O [Embelin] (first compound 5 µM, partner dose 6 µM) | 100 |
